# Experimental data published in article PMC12136788.
# Some of the results follow.
# T1: UNK ZnF1-3 (human, UniProt Q9C0B0 31-174)
# T1 sequence: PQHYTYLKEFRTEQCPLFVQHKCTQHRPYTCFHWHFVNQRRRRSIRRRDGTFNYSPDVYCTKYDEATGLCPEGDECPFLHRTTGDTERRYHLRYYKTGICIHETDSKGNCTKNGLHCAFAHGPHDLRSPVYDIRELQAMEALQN
# B1: chr7:54825262:54825263:-_ENSG00000132432_ENST00000352861|hu_hu|hu_hu_hu_mus_False|88_108 (ssRNA)
# RNA: GGGAGUUCUACAGUCCGACGAUCCUGACUUGGCUCAUCCACAAACUUUACCUGAUCAUCCAUGUUUGUUGGAUGGCGGAUUGAGAGCGUAGAGACACGUAGCUCAGGAGAGAACCGAGCCCAACGGAACCGGAAGCUGGCAACCAACAGAGGAUUGAGCAUCA
# B2: 191745816_191745936_317_CDS_ENSG00000115419_ENST00000338435|human|control|control (ssRNA)
# RNA: GGGAGUUCUACAGUCCGACGAUCUCCCCCGCCUCGGGGACGCCGGCACAGGGUGACCAAGGGCUGUGCCCGCCGCAGAGUCGCGCUCACGCCGGCGGGCGACCGCAGGAGCAGGUCCCGCAGCAUCCCCGAGCCUCGCAGCCGCAACAGAGGAUUGAGCAUCA
# B3: chr11:20126016:20126017:+_ENSMUSG00000020149_ENSMUST00000020358|mus_mus|FALSE|FALSE (ssRNA)
# RNA: GGGAGUUCUACAGUCCGACGAUCGGGAAAAAAGCCAGGCGUGGCGGCGCACACCUUCAGUCUCAGCACUCAGAGACAGAGCUAGGUGGAUCCCUGAGUUCGAGGCCAGCCUGGUCUACAGAGAGAGUUCCAGGACAGCCAGGGCAACAGAGGAUUGAGCAUCA
# B4: chr5:179004091:179004092:+_ENSG00000176783_ENST00000393438|hu_hu|motif|central (ssRNA)
# RNA: GGGAGUUCUACAGUCCGACGAUCUUCAUGCUCCUUGCCACCAUCAAGAUCCUGCACAUCCUUAAGGUAGAGGGAAAAAUCGGUUACUCCAACCUGAGAAUCCAAGUCUUCUCCUUUCAAGCAGAGAUUGGCAUCGAGAACAUUCAACAGAGGAUUGAGCAUCA
# B5: chr22:19452774:19452775:-_ENSG00000070010_ENST00000399523|hu_hu|hu_hu_hu_mus_False|68_88 (ssRNA)
# RNA: GGGAGUUCUACAGUCCGACGAUCCUUCUCAUUGUAGUUGAUAGCAAUCACAUCCCCAGUCGUCAGACAGGCAAAGUUUCUCAAUGCAUUUUCUAAUACCGCUUUAGGGUUGGUAAUAUCCAGGAAGUCUGGGCUCUGAGGCUGCAACAGAGGAUUGAGCAUCA
# B6: chr16:8843268:8843269:+_ENSMUSG00000022507_ENSMUST00000023150|perfect_dup|FALSE|FALSE (ssRNA)
# RNA: GGGAGUUCUACAGUCCGACGAUCACCAUGCAGAGCUAUGGCUUCCCGGAAGGGUUGCAAAUCAGUCUCUACAGAUGAGCUAGUUUCCGUUGAAGUAGCUCGGUUAGGGGACACUACAGUCAGUCUUGGGGGAGCUCUAGAGUUCAACAGAGGAUUGAGCAUCA
# B7: chr1:60041781:60041782:+_ENSMUSG00000041040_ENSMUST00000036540|mus_hu|mus_mus_mus_hu_False|28_28 (ssRNA)
# RNA: GGGAGUUCUACAGUCCGACGAUCAAGUUUACAAUAGUAAAGUAAAUGCAGUAGUGGCAAAUUUUCUUUUAUUUUCCUUCACAAAAGAAAAUCUUUAUAACCCAGUCCAAUCCCAGAACAUAGUGAAAGCUAUAAAUUCUGACUCAACAGAGGAUUGAGCAUCA
# B8: chr4:115894766:115894767:+_ENSMUSG00000028698_ENSMUST00000030464|mus_hu|mus_mus_mus_hu_True|28_38 (ssRNA)
# RNA: GGGAGUUCUACAGUCCGACGAUCUUCCACACGGAAAUGUACUUCGGGUUUUCCAACGGCCAGUACCAGUCCGGCCAAACUACCCGAACAGGGUCCUGUCCUCCUCUUCUCUCCUCCACAACAAAAUGCCCCCGAACUUUCAAGCAACAGAGGAUUGAGCAUCA
# B9: chr18:52893488:52893489:-_ENSG00000196628_ENST00000354452|hu_hu|hu_hu_hu_mus_True|18_18 (ssRNA)
# RNA: GGGAGUUCUACAGUCCGACGAUCUAUUUAGACCAUUUCCGCGGAGUUAUGGCAUUUACUCAGUGCUGAUAGGUGGAAAAACUACUUCAACAGGGAUUUUUUUUUUCCUUAAUACAUGCCAAGAAUUUGUGGCUGUCAAAACAGCAACAGAGGAUUGAGCAUCA
# B10: chr10:10886374:10886375:+_ENSMUSG00000090112_ENSMUST00000044053|mus_mus|FALSE|FALSE (ssRNA)
# RNA: GGGAGUUCUACAGUCCGACGAUCAUGUGGGAUAUUGACAUAGUUUAGUUCUGAACGAAGAACAUCAUAGGUAAUGAUAACUAUAUCUUGUUCUGCCAAAAAAUGAGGCUGUAAGAAGCCGUGUUUCUUCACUCCUUGAUAUACCAACAGAGGAUUGAGCAUCA
# B11: chr9:56909451:56909452:+_ENSMUSG00000032290_ENSMUST00000034832|mus_hu|FALSE|FALSE (ssRNA)
# RNA: GGGAGUUCUACAGUCCGACGAUCCAUAAGUGCACACACACACACACACAGAAUGACAGAAAGGACUGGAAUACACGCCCUACUUAUAAACGUGCUUGGCACUCAGGACGAUCUCUAGAAUAUGUAACUUGGUCAAGCUCUCUGCAACAGAGGAUUGAGCAUCA
# B12: chr11:118025658:118025659:-_ENSMUSG00000017132_ENSMUST00000017276|mus_mus|FALSE|FALSE (ssRNA)
# RNA: GGGAGUUCUACAGUCCGACGAUCUUUGUAUUUUGACAAAUAUUUUUUAAACAAAUACAAAAUAAUCUAAAAGGAGAAAAACUAUGUGUGGAUUAUUUACACCUCUGAUAAAUAGACUGACACUGAGCCAGGUGCUGGCCUGCCCAACAGAGGAUUGAGCAUCA
# B13: chr10:84155644:84155645:+_ENSMUSG00000034453_ENSMUST00000077175|mus_mus|FALSE|FALSE (ssRNA)
# RNA: GGGAGUUCUACAGUCCGACGAUCGCUGUAGCUCAUCACGGCAACAGUUGCGUUCUGGCCAGCCGGCAACUUCUCAAAAUCUAUCAACUCGAUUGUUUUUGUUUUAACCAUGGGCUUUUGUGGAUAUGCUAGUAGAUACAUAAGCAACAGAGGAUUGAGCAUCA
# B14: 71544554_71545539_3271_CDS_ENSMUSG00000053470_ENSMUST00000065509|mouse|control|control (ssRNA)
# RNA: GGGAGUUCUACAGUCCGACGAUCCCAGUCCUUAAGUUUCAACACCAUUGGUUCUUUUUCUUUGUCGUUUUUCAAACGGUUUGGAACAUCUUCAAAUCCAUCCCAGAAGUCUCCGACUGUGGCUCCAGUGAUGAUUUCAUUGGUCAACAGAGGAUUGAGCAUCA
# Molecular target: T1, UNK ZnF1-3
# Experiment: nsRBNS (natural sequence RNA bind-n-seq); RBNS binding buffer (assumed for nsRBNS): 25 mM Tris pH 7.5, 150 mM KCl, 3 mM MgCl2, 0.01% Triton X-100, 500 ug/ml BSA, 20 U/ml SUPERase-In, 4 C; UNK is unkempt and MSI1 is Musashi-1; names of the RNAs are library labels; protein concentration not given here; high values mean tight binding
row,Binder,binding signal [enrichment R]
1,B1,1.05
2,B2,0.638
3,B3,0.845
4,B4,1.71
5,B5,0.899
6,B6,1.72
7,B7,0.464
8,B8,1.04
9,B9,1.11
10,B10,0.738
11,B11,1.32
12,B12,1.39
13,B13,0.902
14,B14,0.364
